# Among all 150,000 compounds or so, about 540 (0.36%) showed an effect of 50% or more. The list shows a part of the results.
# System: Plasmodium falciparum
# Assay: Primary screen in NF54 nanoGlo assay, in single point, at 2uM, 72h; a lower Z score goes with more inhibition
# Assay type: functional, Erythrocyte
# Settings: timepoint 72 hour
Structure (SMILES),% Inhibition [%],Z score
O=C1OCC[C@@H]1N1CCc2ccccc2CC1,-5,0.74
Cc1nc(C(C)C)c(Cc2ccc(F)cc2)c(N2CCN(C(=O)c3ccccc3Cl)CC2)n1,6,-0.61
CN1N=C(C(=O)N[C@H]2CCCc3c2cnn3-c2ccc(F)cc2F)CCC1=O,-9,1.28
Cc1nc(C2CC2)nc(N2CCN(C(=O)c3ccc(F)cc3)CC2)c1Cc1ccc(Cl)cc1Cl,-4,0.7
CCCc1cc2c(cc1N(C(=O)C1CCC(=O)N1)C(=O)C1CCC(=O)N1)OCO2 (centres undefined),-4,0.55
CNC(=O)CCN(C)C(=O)c1ccc(-c2cn(C(F)F)nc2C)cc1,-19,2.37
Cc1nn(C)c(=O)n1C1CCN(C(=O)CC2CCCCC2)CC1,5,-0.67
CC(C)(C)C1CCC2(CC1)CC(=O)c1ccc(OCC(=O)NCCN3CCOCC3)cc1O2 (centres undefined),-9,0.96
C[C@@H](c1ccccc1)n1ccc(NC(=O)c2ccc(=O)n(C)c2)n1,3,-0.29
CCC1CN(C(=O)c2ccc3nccn3c2)CC(C)[S+]1[O-] (centres undefined),-13,2.01
CCC(C(=O)Nc1cc(C)on1)(C(F)(F)F)C(F)(F)F,42,-5.42
CC[C@H](NCC(=O)N(Cc1ccccc1)c1ccccc1)c1cccc(S(N)(=O)=O)c1,-9,1.15
O=C1CN(c2ncc(C(F)(F)F)s2)CN1CCC(F)(F)F,-2,0.25
CC(c1cn(-c2ccccc2)nn1)N1CCCC(CS(N)(=O)=O)C1 (centres undefined),-1,0.12
CC(=O)NC[C@H]1Cn2cc(-c3ccccc3)nc2CO1,27,-3.01
CO[C@@H]1C[C@@H](c2nc(C3CC3)n[nH]2)N(Cc2cc(C#N)ccc2F)C1,-10,1.41
COc1ccc(CCNC(=O)[C@H]2CCCN(c3nc4ccccc4[nH]3)C2)cc1OC,4,-0.66
CC(C)c1nc([C@H]2CCCN(c3ncnc4nc[nH]c34)C2)no1,2,-0.32
CN(C)[C@H]1CCCCN(Cc2nc(-c3ccccc3)cs2)C1,-7,1.12
O=C1C[C@H](NCc2c(Cl)cccc2N2CCOCC2)CN1C1CC1,-8,1.53
Cc1ccc(CNC(=O)CN(C2CCC(C)CC2)C2CCC(O)CC2)cc1 (centres undefined),-6,0.8

Structure (SMILES),% Inhibition [%],Z score
C[C@@H](CNC(=O)c1ccc2cnccc2n1)N(C)C1CC1,-14,1.81
O=C(CCC1CCCCC1)Nc1ccc2c3c(cccc13)C(=O)NC2=O,5,-0.59
C[C@]1(CO)CCCN(Cc2ccccc2OCC(=O)N2CCCCC2)C1,-1,0.19
CN(CC1CCC1)C(=O)[C@@H]1CCCN1c1ncnc2sccc12,-1,0.12
CS(=O)(=O)C1(C(=O)NC(C2CCCC2)C2CCCC2)CCCC1,-5,0.79
O=C(c1n[nH]c2c1CCC2)N1CCOC[C@@H](O)C1,-11,2.05
CN(C(=O)Nc1cccc(OCc2ccc(Cl)cc2)c1)[C@H]1C[C@@H](C(N)=O)C1,-12,1.26
O=C(c1cncc(N2CCOCC2)c1)N1CCn2c1nc1ccccc12,-9,1.5
COc1ccc(-c2noc([C@H](C)NC(=O)c3cnc[nH]c3=O)n2)cc1OC,-2,0.28
N#Cc1cccc(COc2cccc(CN[C@H]3CCCCNC3=O)c2)c1,-7,0.76
c1cnc(-c2n[nH]c(CCC3CCCC3)n2)nc1,-13,1.94
CN(C)[C@@H]1CN(C(=O)c2ccc3cc[nH]c3c2)CC[C@@H]1CO,0,0.02
Cc1ccc(-c2[nH]c3c(c2[C@H]2C(=O)Nc4ccccc42)c(=O)[nH]c(=O)n3C)cc1,-9,0.95
CN1CCN(S(=O)(=O)c2ccc(Br)c3nsnc23)CC1,-11,1.41
Cc1ccc(CS(=O)(=O)N[C@H]2CCc3n[nH]c(=O)n3CC2)cc1C,-13,1.97
O=C(Cc1cn2c(n1)CCCC2)N1CCc2cc(F)c(F)cc21,-3,0.33
COc1ccc(CCN(Cc2nc(C(=O)NCc3cccc(C(F)(F)F)c3)cs2)Cc2ccccc2F)cc1OC,-5,0.71
CCS(=O)(=O)NCC(=O)N1CCC(c2cc(C)ccc2C)CC1,-10,1.82
CC(C(=O)NC(=O)NC1CC1)N1CCC2C(C1)C2(F)F (centres undefined),-10,1.41
CCc1nnc(NCC2(Cn3cccn3)CC2)o1,-4,0.4
COc1ccccc1-c1noc(CN(C)c2ccccc2)n1,-12,1.64

Structure (SMILES),% Inhibition [%],Z score
COC[C@H](C)N(Cc1ccc(OC)c(OC)c1)C(=O)CCn1nc(C)c(C)c1C,-2,0.25
CN1CCO[C@@H](CNc2ncnc3c2cnn3-c2ccccc2F)C1,-1,0.08
O=C(Cn1c(=O)n(Cc2ccco2)c(=O)c2ccccc21)Nc1cccc(Br)c1,32,-0.75
CN(C)C(=O)CN1CCN(C(=O)C2CCCCC2)[C@H]2CS(=O)(=O)C[C@H]21,-13,1.71
COc1ccc(NC(=O)c2cccc(C)c2C)c(S(=O)(=O)N2CCCCC2)c1,3,-0.37
COc1ccc(C(C)C(=O)N2CCCC[C@@H]2C(=O)O)cc1 (some centres undefined),2,-0.31
O=C1CC[C@H](N2Cc3ccc(NCC(=O)Nc4ccccc4)cc3C2=O)C(=O)N1,-15,1.5
CCOC(=O)Cc1csc(NC(=O)COc2cn(C)c(C)cc2=O)n1,-2,0.29
Cc1ccc(-c2ccc(C(=O)N(C)C3(C#N)CCC3)c(F)c2)cc1C,-15,1.39
Cc1nc(C)c(CNc2ccc(C#N)c(C)n2)s1,-7,0.75
CCN(C[C@H]1CCN(C(=O)c2cccc(=O)[nH]2)C1)CC(F)(F)F,-3,0.54
CCc1nnc2c(=O)n(CC(=O)Nc3ccccc3F)c3ccccc3n12,-13,2.16
OC[C@@H]1COCCN(CCn2cc(Cl)cn2)C1,-1,0.12
CO[C@@H](CNS(=O)(=O)c1ccc(C)c(C(=O)O)c1C)C(C)(C)C,-7,0.71
Cc1ccc(F)c(N2CCC[C@H](NC(=O)c3cn[nH]c(=O)c3)C2)c1,-9,1.23
Cc1noc(C)c1CCC(=O)Nc1nc(-c2ccc3c(c2)OCO3)cs1,1,-0.1
COc1ccc(CN(C)C[C@H]2CCCN(CCO)C2)c(C)c1,16,-2.06
O=C(NCC1CS(=O)(=O)c2ccccc21)N[C@H]1CCO[C@@H]1c1ccncc1 (some centres undefined),-11,1.16
Cc1nc(-c2ccccc2)n(CC(=O)N2CCCCCC2)n1,1,-0.11
COc1ccc(F)c(CN2CCC[C@@]3(CCN(Cc4ncc[nH]4)C3)C2)c1,5,-0.82
CCc1nc(C)sc1CN1C[C@@H]2CC[C@H]1CN(C(=O)c1ccccc1)C2,5,-0.65

Structure (SMILES),% Inhibition [%],Z score
CN(C(=O)C1CCOCC1)C1CCCCC1,-9,1.37
Cc1cnc(NC(=O)NC[C@H](O)C(F)(F)F)cn1,-18,3.59
CC(C)n1ccnc1CN(C)OCc1ccccc1,-11,1.62
O=C(O)[C@@H]1CN(C(=O)c2ccc3[nH]c4c(c3c2)CCCC4)CCN1,-4,0.75
COc1cccc2c1CN(C(=O)Nc1ccc(OCCC(C)C)nn1)C2,-10,1.57
CC(C)(C)[C@]1(C)NC(=O)N(Cc2ccccn2)C1=O,-2,0.39
O=C(NCCc1cccnc1)c1cc(O)cc(O)c1,-10,1.04
O=C(Nc1cccc(S(=O)(=O)N2CCCC2)c1)c1cccc(-n2cnnn2)c1,-15,1.5
CN(C)S(=O)(=O)N(CC#N)Cc1ccc(Cl)cc1F,-3,0.4
CC(C)c1noc(-c2cn(Cc3c(F)cccc3F)nn2)n1,0,-0.02
Cc1cccc(OC[C@@H](O)Cn2cnc(C)c(C)c2=O)c1,33,-0.48
COc1ccc(N2C(=O)N[C@@H](CC(=O)NCc3cccn3C)C2=O)cc1,0,0
CC(NCc1cn2ccccc2c1C#N)C(C)n1cccn1 (centres undefined),-6,1.24
CC(C)C(=O)Nc1nnc([C@H]2CC(=O)N(c3ccc(Cl)cc3)C2)o1,-11,1.61
O=C(c1cc(-c2cccnc2)nc2ccccc12)N1CC[C@H]2CC[C@@H](C1)N2,-9,0.82
CCC1(C(=O)O[C@@H](C)c2nnc(C)o2)CCC(O)CC1 (some centres undefined),-14,1.59
CCc1noc(C)c1C(=O)N(C)Cc1ccc2nonc2c1,-8,1.44
O=C(C1=CCCCC1)N1CCC(C2(Cc3ccc(F)cc3)NC(=O)N(CC3CCCO3)C2=O)CC1 (centres undefined),-10,1.41
CC(=O)NCCCC(=O)N1[C@@H]2CC[C@H]1C[C@@H](c1ccc(F)c(C)c1)C2,-6,1.11

# Source: ChEMBL document CHEMBL4888484, “Replenishing the malaria drug discovery pipeline: Screening and hit evaluation of the MMV Hit Generation Library 1 (HGL1) against asexual blood stage Plasmodium falciparum ,using a nano luciferase reporter read-out” (2022)
